Values marked as one replicate rest on one cluster of the flow cell; about a third of the high ones do not repeat.
Tested on: ATP
Experiment: switch fluorescence ratio, 500 uM ATP over buffer (Cy3 cluster intensity, sum of 5 cycles each) (fold (ratio)); higher = stronger signal-on switching upon ATP binding; sequences stand for … in TCGTCGGCAGCGTCAGATGTGTATAAGAGACAGTTTTTTTTTTTTTTTTTTTTTTTTT…TC
Conditions: aptamer strand: ATP DNA aptamer (quencher-CACCTGGGGGAGTATTGCGGAGGAAGG + anchor), 100 nM annealed; ATP concentration: 500 uM; one replicate
Outline: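 Clusters with intensities outside 100-1000 RFU were excluded. The remaining Cy3-labelled switching-strand clusters on a modified Illumina MiSeq flow-cell had been annealed to 100 nM quencher-labelled ATP aptamer and imaged in selection buffer, then after 15 min with 500 uM ATP at 22 °C, for five cycles separated by NaOH stripping and re-annealing. The fluorescence ratio, averaged per switch-domain sequence, is each cluster's summed target-cycle Cy3 intensity over its summed buffer-cycle Cy3 intensity.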
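Further: ATP exposure 15 min at 22 °C before imaging.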

| Sequence | switch fluorescence ratio |
| --- | --- |
| AACCTGGTGC | 1.82 |
| TCGAAACCAA | 1.01 |
| CGCCAGGGTG | 1.09 |
| ATTATCCCGC | 1.16 |
| TCACGGGGT | 0.965 |
| GACGCATGGG | 1.06 |
| GGTGGTGCCC | 0.998 |
| CGTAAAAGTC | 0.975 |
| CGCTGAAAC | 1.4 |
| TATAGGTTAA | 0.977 |
| TTGGGAGTCG | 1.01 |
| TGGATCTAAT | 1.01 |
| CAATGGGTCC | 1.03 |
| AGGACGTGGA | 1.03 |
| AGACGCCCAT | 1.21 |
| GCCGGTTTCC | 0.977 |
| AGGCGCCGTT | 1.03 |
| TTCCCGTCAT | 1.06 |
| CGTTCATTGA | 0.975 |
| TCGCCCCTG | 1.03 |
| GAGTTAAGC | 1.02 |
| GTTGTGTATG | 1.01 |

| Sequence | switch fluorescence ratio |
| --- | --- |
| TAGTAAATCT | 1.04 |
| TTCTCATCGT | 0.972 |
| GCACGGAAT | 1.04 |
| GTAGCATTCA | 1.17 |
| ACCAAGCAAC | 2.01 |
| TTGGTGGCCG | 1.04 |
| TACCGAGGGC | 1.1 |
| GGTGGAGGTC | 0.989 |
| CAATGACTTG | 0.953 |
| CAGTTTAGAA | 1.02 |
| GACACGTGCA | 0.979 |
| CTGTGCCGTT | 1.03 |
| CGGGCACGCT | 1.03 |
| TATTCGATTG | 0.952 |
| ACAAATATAC | 1.35 |
| AGGATATCAC | 1.01 |
| AGGCGCATGT | 1.09 |
| AATAACATAC | 1.43 |
| AAGATATCCC | 1.03 |
| TATTATATA | 1.01 |
| TCGTCGTT | 1.01 |
| CCTAACAGAG | 1.02 |

| Sequence | switch fluorescence ratio |
| --- | --- |
| AATGAGCCTC | 0.982 |
| GGACGTCGCC | 1.04 |
| GAGTTTACTT | 1.05 |
| ATATTAATC | 0.976 |
| TTTTGTATAC | 1.01 |
| CGCTGGTTCG | 1.05 |
| GACTGCGATG | 1.03 |
| ACGTTCTAAC | 1.06 |
| CATGGGTCA | 0.987 |
| TTCGCCCGGT | 0.975 |
| CGGGTCTAGG | 0.991 |
| CTTGGCCTCC | 1.14 |
| GTGATCCCGC | 1.11 |
| CGAAAGATAG | 1.05 |
| GAAAGGTGTA | 1.11 |
| AAACGGATTG | 1.01 |
| TCTGACTCTG | 0.971 |
| AGTCGAAAAC | 1.01 |
| ACTTTATCAC | 1.11 |
| AGTTGGTGCT | 1.03 |
| TCCCAACCG | 1.04 |
| TTGCCTTAGA | 0.975 |

| Sequence | switch fluorescence ratio |
| --- | --- |
| GAGTGTCGCT | 0.971 |
| TGTGTGTTC | 1.01 |
| TAATATTAAT | 0.97 |
| CGCCTAGTGT | 1.05 |
| TGGGGCG | 1.15 |
| AAGTCCTATT | 0.98 |
| CGCACCCGGG | 1.25 |
| CAGATTAGCC | 0.997 |
| TAAGGACTGC | 1.04 |
| TCCATTATAC | 1.6 |
| TAATGGGCTG | 1.04 |
| TTTCAACGGC | 1.02 |
| AAGTCATGCA | 0.995 |
| TAGCCTGGAA | 0.991 |
| ATCCAGGCTC | 0.989 |
| AACCGTCGTG | 1.02 |
| TTTCAGTTTA | 0.99 |
| AAGGTCGTTC | 1.01 |
| GTGTGAATGC | 0.919 |
